From PubChem BioAssay AID463173 (ICCB-Longwood Screening Facility, Harvard Medical School, 2010)
Out of some 52,000 compounds screened, about 4,300 (8.3%) were called active. Rule as the data show it: active = survival mostly below about 52% (no sharp cut-off); inactive = mostly above about 56%. The list shows a part of the results.

What follows are compounds tested on DeltatarO mutant (assay: S. aureus survival, RN4220 and DeltatarO strains – OD600, teichoic acid synthesis inhibitors, primary screen (AID 463173)). Conditions: S. aureus RN4220 wild type/DeltatarO growth, OD600, 18 h, hits give low values, screened at 18.75 µg/mL (by protocol).

Row | Structure (SMILES) | survival
1 | COc1cccc(-c2nnc3sc(CN4CCCCC4)cn23)c1 | inactive: 77%
2 | COc1ccc(CNC(=O)C(OC(=O)c2ccc(Cl)nc2)c2ccccn2)cc1 (configuration not stated) | inactive: 104%
3 | O=C(NCCc1ccc(Cl)cc1)c1ccc2c(c1)N(Cc1cccc(Cl)c1)C(=O)c1ccccc1S2(=O)=O | inactive: 117%
4 | Cc1cccc(CCNC(=O)c2c[nH]c3ccc(S(=O)(=O)Nc4ccccc4F)cc3c2=O)c1 | inactive: 90%
5 | O=C(CSc1nc2ccccc2c(=O)[nH]1)NC1CCCC1 | inactive: 87%
6 | COC(=O)c1ccc(NC(=O)CC2C(=O)N(c3cccc(C)c3)C(=O)N2C2CCCC2)cc1 (configuration not stated) | inactive: 124%
7 | O=C(CCCc1ccccc1)NCC1CCCO1 (configuration not stated) | inactive: 89%
8 | Cc1cc(=O)oc2c3c(ccc12)OCN(Cc1ccc(Cl)cc1)C3 | inactive: 61%
9 | CCn1nc(C)c2c(-c3ccccc3)cc(=O)n(C(C)C(=O)NCCc3ccccc3)c21 (configuration not stated) | inactive: 77%
10 | CCc1nn2c(=O)cc(COC(=O)c3ccccc3NC(=O)c3cccs3)nc2s1 | inactive: 84%
11 | O=C(CCn1ccc2cc(S(=O)(=O)N3CCCC3)ccc21)NCc1ccccc1Cl | inactive: 55%
12 | O=C(Nc1sc2c(c1C(=O)NCCc1ccccc1)CCC2)c1ccco1 | inactive: 108%
13 | CCc1ccc(NC(=O)c2cc(C)nn2-c2ccccc2)cc1 | inactive: 65%
14 | CCOC(=O)c1c(C)n(-c2ccccc2)c2ccc(OC(=O)c3cc(OC)cc(OC)c3)cc12 | inactive: 75%
15 | CCOC(=O)c1c(NC(=O)c2cc3ccccc3c(=O)o2)sc2c1CCC(C(C)(C)C)C2 (configuration not stated) | inactive: 53%
16 | CC(=O)Nc1ccc(-c2nn3c(C)nnc3s2)cc1 | inactive: 76%
17 | O=C(Oc1ccc(OC(=O)N2CCOCC2)cc1)N1CCOCC1 | inactive: 87%
18 | CCOC(=O)N1CCc2c(sc3c2c(=O)n(-c2ccc(F)cc2)c(=O)n3CC(=O)c2ccccc2)C1 | inactive: 77%
19 | O=C(NCCc1ccccc1)C1COc2ccccc2C1 (configuration not stated) | active: 37%

Row | Structure (SMILES) | survival
20 | O=C(c1ccc2c(c1)N(Cc1ccc(Cl)cc1)C(=O)c1ccccc1S2(=O)=O)N1CCc2ccccc21 | inactive: 120%
21 | CCC(C(=O)Nc1cccc(C#N)c1)n1nc(-c2ccccc2)ccc1=O (configuration not stated) | active: 40%
22 | COC(=O)c1ccccc1NC(=O)CSc1nnc2cc(C)c3cc(C)cc(C)c3n12 | inactive: 60%
23 | Cc1ccc(NC(=O)CCCn2nc(C)c3sc4ccccc4c3c2=O)c(Cl)c1 | inactive: 84%
24 | Cc1ccc(-c2nnc(Nc3cccc(Br)c3)c3ccccc23)cc1S(=O)(=O)NCC1CCCO1 (configuration not stated) | inactive: 70%
25 | O=C(NCc1ccc(F)cc1)C(=O)NCC(c1ccco1)S(=O)(=O)c1cccs1 (configuration not stated) | active: 8%
26 | O=C(Cn1ccc2cc(S(=O)(=O)N3CCCC3)ccc21)NCc1ccccc1Cl | inactive: 65%
27 | CCOc1ccc(C2C(=O)N(C3CCCCCC3)CC(=O)N2CCc2ccc(Cl)cc2)cc1OC (configuration not stated) | inactive: 75%
28 | CCCc1ccc(-c2ccc(/C=C/C(=O)O)cc2)nc1 | inactive: 82%
29 | COc1ccc(Cl)cc1S(=O)(=O)N1CCCC1 | inactive: 103%
30 | CCOc1ccc(NC(=O)CCNS(=O)(=O)c2cccc3nsnc23)cc1 | inactive: 52%
31 | Cc1ccc(Nc2nc(C)c(NC(=O)c3ccc(C)cc3)c(Nc3ccc(C)cc3)n2)cc1 | inactive: 116%
32 | CCOc1ccc(C(=O)Nc2ccc3oc(-c4ccncc4)nc3c2)cc1 | inactive: 74%
33 | CCS(=O)(=O)N1CCc2cc(C(=O)Nc3cc(OC)c(Cl)cc3OC)ccc21 | active: 43%
34 | CCc1cccc(C)c1NC(=O)C(CC)Sc1nncn2c1cc1occc12 (configuration not stated) | active: 53%
35 | CCC(=O)Nc1cc(-c2nc3ccccc3s2)c(Cl)cc1Cl | inactive: 132%
36 | COc1ccc(NC(=O)c2oc3ccccc3c2NC(=O)COc2ccc(F)cc2)c(OC)c1 | inactive: 83%
37 | Cn1c(=O)n(C)c2cc(NS(=O)(=O)c3ccc(C(C)(C)C)cc3)c(NCc3ccccc3)cc21 | active: 43%
38 | Cc1cccc(C(=O)Nc2nnc(S(=O)(=O)N3CCCc4ccccc43)s2)c1 | active: 17%

Row | Structure (SMILES) | survival
39 | COc1ccc(CCNC(=O)Cn2nc(C)c3c(C)n(-c4ccc(C)cc4)nc3c2=O)c(OC)c1 | inactive: 87%
40 | Cc1c(Cl)cccc1NC(=O)Cn1cnc(S(=O)(=O)N2CCCC2)c1 | inactive: 90%
41 | COc1ccc(NC(=O)CC2C(=O)N(c3ccc(C)cc3)C(=O)N2Cc2ccc(C)cc2)cc1 (configuration not stated) | inactive: 68%
42 | O=c1c2ccccc2c2nc3c(=O)c4ccccc4c3nc12 | inactive: 61%
43 | CCOc1ccc(NC(=O)CCn2nc(C)c(S(=O)(=O)N3CCCCC3)c2C)cc1 | inactive: 126%
44 | Cc1nnc(NCc2ccc(F)cc2)c2c1nnn2Cc1ccccc1Cl | inactive: 82%
45 | COc1ccccc1N1CCN(S(=O)(=O)c2c(C)sc3ncn(CC(=O)NCCN(C)C)c(=O)c23)CC1 | inactive: 88%
46 | O=C(NCCC1=CCCCC1)c1ccc2c(c1)N(Cc1ccc(Cl)cc1)C(=O)c1ccccc1S2(=O)=O | inactive: 78%
47 | CCc1ccc(N2C(=O)N(CC(=O)C(C)(C)C)c3ccccc3S2(=O)=O)cc1 | inactive: 72%
48 | CCc1ccc(NC(=O)CSc2nnc(C(C)C)n2CC)cc1 | inactive: 96%
49 | COC(=O)c1cccc(CN2C(=O)SC(Nc3ccc(Cl)cc3)C2=O)c1 (configuration not stated) | inactive: 42%
50 | COc1ccc(Nc2c3c(nc4nncn24)CCC3)cc1Cl | inactive: 84%
51 | O=C(Nc1ccccc1C(F)(F)F)N1CCC2(CC1)Oc1ccccc1C(=O)N2Cc1ccccc1F | inactive: 67%
52 | CCOC(=O)c1c(C)oc2nc(C)nc(NCc3ccc(OC)cc3)c12 | inactive: 94%
53 | CCCc1cc(=O)[nH]c(Nc2ccc(C)c(O)c2)n1 | inactive: 57%
54 | CCCCOc1ccc(C(=O)Nc2nc3c(s2)CC(C)CC3)cc1 (configuration not stated) | inactive: 74%
55 | CC(=O)Nc1ccc(NC(=O)CCc2c(C)nc3c(c(C)nn3-c3ccccc3)c2C)cc1 | inactive: 107%
56 | CCN(CC)CCCNC(=O)c1nn(-c2ccc(OC)cc2)c(=O)c2c1c1ccccc1n2C | inactive: 100%
57 | O=c1c2ccccc2nc(N2CCN(c3cccc(Cl)c3)CC2)n1-c1ccccc1 | inactive: 63%
